We go through three molecules from article PMC5473638.

One assay has as its target Flag(3 × )–Cep63 (human) (UniProt Q96MT8). The assay is described as follows: co-IP; lysates from MEFs expressing GFP–Cep63 and Flag–Cep63, immunoprecipitated with anti-Flag antibody and normal IgG; western blot.
Assay [1] addresses p62 (mouse (endogenous in MEFs)) (UniProt Q64337). The assay is described as follows: co-IP; lysates of MEFs expressing GFP–Cep63 or Flag(3×)–Cep63 incubated with anti-p62 antibody or normal rabbit IgG for 2 h at 4 °C; Dynabeads protein G, washed four times; western blot with anti-GFP or anti-Flag.
Assay [2] has the same target. Briefly: proximity ligation; Duolink close proximity assay with anti-Flag and anti-p62 antibodies in fixed MEFs (WT, Atg5−/−, p62−/−, p62−/− with p62 plasmids) transiently transfected with Flag(3×)–Cep63 for 24 h; signal area per cell by In Cell Analyzer.
Assay [3] has as its target p62 Δzinc finger mutant (mouse) (UniProt Q64337). Described as above.
The target of another assay is full-length p62 (mouse) (UniProt Q64337). The assay is described as above.
For assay [4], the target named is in vitro-translated p62 (mouse) (UniProt Q64337). Briefly: co-IP; in vitro-translated p62 and in vitro-translated Flag–Cep63 incubated, immunoprecipitated with anti-p62 antibody or normal IgG for 2 h at 4 °C; Dynabeads protein G; western blot.

Results are given in words; binding and its absence hold for the method and conditions named. In cells and extracts the contact can be indirect. Some results given as binding are weak or reduced against the parent protein; the word gives no strength. Tags and fused reporters may be left off the sequences shown.

B1: Flag(3 × )–Cep63 (protein, UniProt Q96MT8 1-703)
chain: MEALLEGIQNRGHGGGFLTSCEAELQELMKQIDIMVAHKKSEWEGRTHALETCLKIREQELKSLRSQLDVTHKEVGMLHQQVEEHEKIKQEMTMEYKQELKKLHEELCILKRSYEKLQKKQMREFRGNTKNHREDRSEIERLTAKIEEFRQKSLDWEKQRLIYQQQVSSLEAQRKALAEQSEIIQAQLVNRKQKLESVELSSQSEIQHLSSKLERANDTICANELEIERLTMRVNDLVGTSMTVLQEQQQKEEKLRESEKLLEALQEEKRELKAALQSQENLIHEARIQKEKLQEKVKATNTQHAVEAIRPREESLAEKKYTSQGQGDLDSVLSQLNFTHTSEDLLQAEVTCLEGSLESVSATCKQLSQELMEKYEELKRMEAHNNEYKAEIKKLKEQILQGEQSYSSALEGMKMEISHLTQELHQRDITIASTKGSSSDMEKRLRAEMQKAEDKAVEHKEILDQLESLKLENRHLSEMVMKLELGLHEAKEISLADLQENYIEALNKLVSENQQLQKDLMNTKSQLEISTQMCKKQNDRIFKPTHSRTTEFKNTEFKPTHGQHRHDGIKTEHYKTDLHSPRGQASDSINPMSRVLSPLSPQISPCSSTRSLTSYSLCKTHSLPSALDTNEANFSDTMSESMNDQEEFISSCSLPVSPLGSIATRFLEEEELRSHHILERLDAHIEELKRESEKTVRQFTALK
Consider B1, for which the binding entry with Flag(3 × )–Cep63 (human) is “binds”; in assay [1], “binds”; in assay [2], “binds”; in assay [3], “no binding”; with full-length p62 (mouse), “binds”.

B2: in vitro-translated Flag–Cep63 (protein, UniProt Q96MT8 1-703)
chain: MEALLEGIQNRGHGGGFLTSCEAELQELMKQIDIMVAHKKSEWEGRTHALETCLKIREQELKSLRSQLDVTHKEVGMLHQQVEEHEKIKQEMTMEYKQELKKLHEELCILKRSYEKLQKKQMREFRGNTKNHREDRSEIERLTAKIEEFRQKSLDWEKQRLIYQQQVSSLEAQRKALAEQSEIIQAQLVNRKQKLESVELSSQSEIQHLSSKLERANDTICANELEIERLTMRVNDLVGTSMTVLQEQQQKEEKLRESEKLLEALQEEKRELKAALQSQENLIHEARIQKEKLQEKVKATNTQHAVEAIRPREESLAEKKYTSQGQGDLDSVLSQLNFTHTSEDLLQAEVTCLEGSLESVSATCKQLSQELMEKYEELKRMEAHNNEYKAEIKKLKEQILQGEQSYSSALEGMKMEISHLTQELHQRDITIASTKGSSSDMEKRLRAEMQKAEDKAVEHKEILDQLESLKLENRHLSEMVMKLELGLHEAKEISLADLQENYIEALNKLVSENQQLQKDLMNTKSQLEISTQMCKKQNDRIFKPTHSRTTEFKNTEFKPTHGQHRHDGIKTEHYKTDLHSPRGQASDSINPMSRVLSPLSPQISPCSSTRSLTSYSLCKTHSLPSALDTNEANFSDTMSESMNDQEEFISSCSLPVSPLGSIATRFLEEEELRSHHILERLDAHIEELKRESEKTVRQFTALK
Regarding B2, in assay [4], the binding entry is on record as “binds”.

B3: GFP–Cep63 (protein, UniProt Q96MT8 1-703)
chain: MEALLEGIQNRGHGGGFLTSCEAELQELMKQIDIMVAHKKSEWEGRTHALETCLKIREQELKSLRSQLDVTHKEVGMLHQQVEEHEKIKQEMTMEYKQELKKLHEELCILKRSYEKLQKKQMREFRGNTKNHREDRSEIERLTAKIEEFRQKSLDWEKQRLIYQQQVSSLEAQRKALAEQSEIIQAQLVNRKQKLESVELSSQSEIQHLSSKLERANDTICANELEIERLTMRVNDLVGTSMTVLQEQQQKEEKLRESEKLLEALQEEKRELKAALQSQENLIHEARIQKEKLQEKVKATNTQHAVEAIRPREESLAEKKYTSQGQGDLDSVLSQLNFTHTSEDLLQAEVTCLEGSLESVSATCKQLSQELMEKYEELKRMEAHNNEYKAEIKKLKEQILQGEQSYSSALEGMKMEISHLTQELHQRDITIASTKGSSSDMEKRLRAEMQKAEDKAVEHKEILDQLESLKLENRHLSEMVMKLELGLHEAKEISLADLQENYIEALNKLVSENQQLQKDLMNTKSQLEISTQMCKKQNDRIFKPTHSRTTEFKNTEFKPTHGQHRHDGIKTEHYKTDLHSPRGQASDSINPMSRVLSPLSPQISPCSSTRSLTSYSLCKTHSLPSALDTNEANFSDTMSESMNDQEEFISSCSLPVSPLGSIATRFLEEEELRSHHILERLDAHIEELKRESEKTVRQFTALK
Regarding B3, the binding entry in assay [1] was “binds”.
